Reference: publication PMC4336329 (PLoS ONE, 2015)
About 14,000 (4.5%) of roughly 310,000 compounds showed an effect of 50% or more. The effect is printed as a negative number. Some of the results follow.

Target: human ether-à-go-go-related gene (hERG) potassium channel (human, UniProt Q12809)
Assay: primary screen, population patch clamp on CHO cells stably expressing hERG
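Also: peak tail current of the secondary pulse compared with the same well before compound.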

Chain of human ether-à-go-go-related gene (hERG) potassium channel (Q12809 whole entry, looked up): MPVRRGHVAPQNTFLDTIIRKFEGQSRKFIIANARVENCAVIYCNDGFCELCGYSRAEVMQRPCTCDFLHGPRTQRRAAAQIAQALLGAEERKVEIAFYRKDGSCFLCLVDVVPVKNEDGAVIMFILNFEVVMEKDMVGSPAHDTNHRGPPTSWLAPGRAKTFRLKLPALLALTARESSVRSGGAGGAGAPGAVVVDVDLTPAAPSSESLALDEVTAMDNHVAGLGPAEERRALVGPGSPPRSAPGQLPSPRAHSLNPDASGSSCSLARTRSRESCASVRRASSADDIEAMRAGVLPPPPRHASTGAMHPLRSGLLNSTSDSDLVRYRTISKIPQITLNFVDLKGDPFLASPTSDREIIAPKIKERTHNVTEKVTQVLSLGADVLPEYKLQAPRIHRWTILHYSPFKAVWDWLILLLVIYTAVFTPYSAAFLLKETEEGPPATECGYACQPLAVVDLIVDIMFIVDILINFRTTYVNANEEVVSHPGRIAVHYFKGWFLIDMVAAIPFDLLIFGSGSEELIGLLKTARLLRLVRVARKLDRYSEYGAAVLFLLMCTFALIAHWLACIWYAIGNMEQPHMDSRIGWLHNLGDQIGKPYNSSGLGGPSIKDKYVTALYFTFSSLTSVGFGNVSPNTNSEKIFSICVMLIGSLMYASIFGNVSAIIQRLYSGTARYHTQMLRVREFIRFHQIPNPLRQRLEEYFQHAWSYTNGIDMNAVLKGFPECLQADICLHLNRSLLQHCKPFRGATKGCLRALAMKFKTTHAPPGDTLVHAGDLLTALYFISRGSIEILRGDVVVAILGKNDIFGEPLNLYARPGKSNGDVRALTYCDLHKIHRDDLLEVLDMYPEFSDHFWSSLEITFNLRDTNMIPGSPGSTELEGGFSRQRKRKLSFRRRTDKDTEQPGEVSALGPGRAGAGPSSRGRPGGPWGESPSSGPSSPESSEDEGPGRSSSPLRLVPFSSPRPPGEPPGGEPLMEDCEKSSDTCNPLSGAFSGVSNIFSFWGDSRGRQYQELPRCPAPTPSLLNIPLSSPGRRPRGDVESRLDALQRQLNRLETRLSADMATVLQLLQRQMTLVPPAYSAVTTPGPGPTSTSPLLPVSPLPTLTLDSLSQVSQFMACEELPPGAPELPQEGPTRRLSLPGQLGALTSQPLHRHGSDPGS

Row | Compound | hERG current change (%, negative = inhibition) at 10uM [%]
1 | COc1cccc(-c2csc(N3CCN(S(=O)(=O)c4ccc(F)cc4)CC3)n2)c1 | -10.2
2 | Cc1cc(Cl)ccc1OCC(=O)OCC(=O)c1c(N)n(C)c(=O)n(C)c1=O | -26.5
3 | Cc1ccc(NS(=O)(=O)c2cc(C(=O)OCC(=O)NCC3CCCO3)ccc2C)cc1 (stereo not shown) | -7.69
4 | O=S(=O)(c1ccccc1)N1CCN(CC(O)COc2ccc3c(c2)CCC3)CC1 (stereo not shown) | -28.7
5 | Cc1ccc(S(=O)(=O)NCCC(=O)N2CC(C)OC(C)C2)cc1 (stereo not shown) | 16.7
6 | CCc1cccc2c(C(=O)CSc3nncn3C)c[nH]c12 | 7.69
7 | COc1ccc(-c2nc3c(n2O)CCc2c-3no[n+]2[O-])cc1 | 10.6
8 | COc1cccc(C(=O)Nc2c(C)nn(-c3ccccc3)c2C)c1 | 11.3
9 | Cl.Fc1ccc(Nc2nc(N3CCOCC3)c3ccccc3n2)cc1 | -2.91
10 | CCN(CC(=O)NC(C)(C)C)C(=O)CN1c2cccc3cccc(c23)S1(=O)=O | 15.5
11 | CSc1nnc(-c2cc3ccccc3cc2O)n1C | -11
12 | O=CN1CCN(C(=O)c2cccc([N+](=O)[O-])c2)CC1 | -4.11
13 | CCCCN(CC)CCCNC(=S)Nc1ccc2nc(N3CCN(C)CC3)cc(C)c2c1 | 5.19
14 | COC(=O)c1ccc(NC(=O)CCN2CCN(CCC(=O)Nc3ccc(C(=O)OC)cc3)CC2)cc1 | -15.4
15 | CCC(=O)c1ccc(OCC(=O)OCC(=O)N2CCN(c3ccc(OC)cc3)CC2)cc1 | 19
16 | CCC(Oc1ccccc1)C(=O)Nc1ccccc1C(=O)N1CCCCC1 (stereo not shown) | -9.09
17 | CCCC(=O)Nc1nc2n(n1)C(c1ccccc1)CC(=O)N2 (stereo not shown) | -1.76
18 | CN(C)C1C(=O)c2ccccc2C1=O | -7.61
19 | COCCNCCCOc1ccc(C(C)(C)c2ccccc2)cc1.O=C(O)C(=O)O | -29.3
20 | CCCCN(C)Cc1c(C)[nH]c2ccccc2c1=O | -2.26
21 | COC(=O)CNC(=O)COC(=O)/C=C/c1ccc(F)cc1 | 9.43
22 | O=P(/C(=N/O)N1CCCCC1)(N1CCOCC1)N1CCOCC1 | 2.31

Row | Compound | hERG current change (%, negative = inhibition) at 10uM [%]
23 | Cc1nn(CC(=O)NCCN2CCOCC2)c(C)c1[N+](=O)[O-] | 34.8
24 | Cc1cc(C2C(C#N)=C(N)OC3=C2C(=O)CCC3)c(C)s1 (stereo not shown) | -9.38
25 | O=C(COC(=O)c1ccc(S(=O)(=O)N2CCc3ccccc3C2)cc1)NC(=O)NCc1ccco1 | 13.5
26 | O=C(O)CCN1C(=O)C2C3CC(C2C1=O)C1C(c2ccccc2)c2sc(=O)n(-c4ccccc4)c2SC31 (stereo not shown) | 10.7
27 | COc1ccc(CN(C)C(=O)c2[nH]c(C)c(C(C)=O)c2C)cc1F | 5.77
28 | O=C(Nc1ccc(N2CCOCC2)cc1)c1cccc(S(=O)(=O)N2CCCCCC2)c1 | 14.3
29 | CC(=O)C[C@@H](O)CC(=O)[C@H]1OC(=O)CCCCCCc2ccccc21 | -2.65
30 | CS(=O)(=O)c1nc2ccccc2n1Cc1ccccc1 | -11.8
31 | O=C(Cn1c2ccc(F)cc2c2nc3n(c(=O)c21)CCS3)NC1CCCC1 | 4.11
32 | CC(=O)Nc1ccc(Nc2ncc([N+](=O)[O-])c(Nc3ccc(NC(C)=O)cc3)n2)cc1 | 1.84
33 | CCC[N+]1(CC#CC2(O)CCCCC2)CCOCC1.[I-] | 20.9
34 | N#Cc1ccccc1NS(=O)(=O)c1cc2c3c(c1)CCN3C(=O)CC2 | 11.3
35 | S=c1[nH]nc(COc2ccccc2)n1/N=C/C(Cl)=C/c1ccccc1 | 7.14
36 | COc1cccc(NC(=S)N2CCCC2)c1 | 10.4
37 | Cc1ccc(NC(=O)CN(C)C(=O)C2COc3ccccc3O2)cc1 (stereo not shown) | 14.2
38 | CCc1nnc(NC(=O)CSc2nnc(CNc3ccc(Cl)cc3)o2)s1 | -7.28
39 | O=C1CN(C(=O)c2ccco2)c2ccccc2N1 | 3.05
40 | CCCc1ccc(C(=O)O/N=C(\N)c2ccccn2)cc1 | -0.642
41 | COc1ccc(-c2csc(/C=C/c3ccc4c(c3)OCO4)n2)cc1OC | 7.5
42 | CCOc1ccc(-c2c(C)sc3nc[nH]c(=O)c23)cc1 | 19
43 | Cl.N=c1n(CCO)c2ccccc2n1CCOc1ccc(Cl)cc1Cl | -63.8
44 | O=C(NC1CCCCC1)C(c1ccncc1)N(Cc1ccc2c(c1)OCO2)C(=O)c1cnsn1 (stereo not shown) | -10.8

Row | Compound | hERG current change (%, negative = inhibition) at 10uM [%]
45 | Cc1cc(C)cc(N2C(=O)CC(Cn3nc(C)cc3C)C2=O)c1 (stereo not shown) | 12.1
46 | Fc1ccc(NC(=S)NCc2cccs2)cc1 | 2.45
47 | O=S(=O)(c1cccc(-c2nnc3n2CCCCC3)c1)N1CCOCC1 | -29.5
48 | CCOC(=O)CSc1nnc(CNC(=O)c2cccs2)n1-c1ccccc1 | -5.51
49 | CCCCCCCN1C(Nc2ccccc2)=NC[C@@H]1Cc1ccccc1 | -83.3
50 | CC(C)CN(C(=O)COC(=O)C(C)N1C(=O)c2ccccc2C1=O)c1c(N)n(Cc2ccccc2)c(=O)[nH]c1=O (stereo not shown) | -7.78
51 | CCOC(=O)c1cc(S(=O)(=O)NCc2ccco2)cn1C | 0.219
52 | C/C(=N\Nc1nc2ccccc2s1)c1ccc2c(c1)OCO2 | 32.4
53 | CCCCCOC(=O)C1[C@H]2C(=O)N(Cc3cccs3)C[C@]23C=C[C@H]1O3 (stereo partly shown) | 1.95
54 | Cc1ccc([N+](=O)[O-])cc1NC(=O)CN1CCC(C)CC1 | -1.56
55 | COCCNC(=S)N1CCN(c2cccc(C)c2C)CC1 | 7.38
56 | O=S(=O)(Nc1cccnc1)c1ccc(F)cc1 | 16.6
57 | O=C(O)/C=C/C(=O)Nc1ccc(OC(F)F)cc1 | 20.8
58 | O=C(NCCN1CCOCC1)c1ccc2c(c1)N(Cc1ccccc1F)C(=O)c1ccccc1S2 | -27
59 | Cc1ccc(/C=C2/SC(=S)N(c3ccc(S(=O)(=O)Nc4nccs4)cc3)C2=O)cc1 | 6.74
60 | Cc1cc(C)c(NC(=O)CSc2nnc(-c3ccncc3)n2Cc2ccco2)c(C)c1 | -31.6
61 | Cc1ccccc1C1C(C#N)=C2NC(=O)c3c(sc4c3CCCCC4)N2C2=C1C(=O)CC(C)(C)C2 (stereo not shown) | 14.5
62 | CCOc1cc(/C=C/c2cc(C(F)(F)F)[nH]c(=O)n2)ccc1O | 16.7
63 | COc1ccccc1N1CCN(Cc2cc(C)c(C)cc2O)CC1 | -37.1
64 | Cc1cccc(C)c1NC(=S)N(Cc1cccnc1)Cc1ccccc1Cl | -19.3
65 | Cc1nnc(Nc2ccc(F)cc2)c2ccccc12 | -42
66 | COc1ccc(-c2cc3cc(-c4cc(OC)c(OC)c(OC)c4)ccc3o2)cc1 | -0.134

Row | Compound | hERG current change (%, negative = inhibition) at 10uM [%]
67 | Cn1c(CSc2nc3ccccc3n2C)nc2ccccc21 | -5.21
68 | C#CCn1cnc2c(cnn2-c2ccc(C)c(C)c2)c1=O | 3.21
69 | Cc1ccc(-c2cc(C(F)F)nc(NCc3cccnc3)n2)cc1 | 8.36
70 | Cc1nn(C(C)C(=O)NNC(=S)Nc2ccc(Cl)cc2)c(C)c1[N+](=O)[O-] (stereo not shown) | 14.5
71 | COc1ccc(-c2nc(C#N)c(NCCCN3CCOCC3)o2)cc1 | -13
72 | Cc1cccc(NC(=O)c2nc[nH]c2C(=O)NCc2ccccc2)c1 | 11.6
73 | CSc1nc2nc3c(c(=O)n2[nH]1)CN(Cc1ccccc1)CC3 | -20.5
74 | CC(=O)O[C@H]1[C@H]2O[C@]23[C@@H]2CC[C@]4(O)C[C@@H](O)CC[C@]4(C)C2CC[C@]3(C)[C@H]1c1ccc(=O)oc1 (stereo partly shown) | -8.54
75 | NS(=O)(=O)c1cnccc1Nc1ccc(Cl)c(Cl)c1 | -19
76 | CC1(C)CC(=O)CC(=NCC(=O)O)C1 | -1.91
77 | O=P(c1ccccc1)(c1ccccc1)c1nc(-c2ccccc2)oc1N1CCOCC1 | -20.5
78 | CCc1nnc(NC(=O)CCC2CCCCC2)s1 | 1.92
79 | Cc1cc(C)cc(Oc2ccc(N)cc2)c1 | -15.1
80 | Nc1ccc(CCNc2ncnc3c2ncn3[C@@H]2O[C@H](CO)[C@@H](O)[C@H]2O)cc1 | 13.3
81 | Cc1onc(-c2ccccc2)c1C(=O)Nc1c(C)n(C)n(-c2ccccc2)c1=O | 11.7
82 | CN(C)S(=O)(=O)c1cccc(NC(=O)c2cc3c(cc2Cl)N2CCCCCC2=NS3(=O)=O)c1 | 5.64
83 | COC(=O)C1=C(C)N(c2ccc(OC)cc2)C(C)=C(C(=O)OC)C1c1ccccc1 | 4.58
84 | Cc1noc(NS(=O)(=O)c2ccc(N/C=C/C(=O)c3ccc(F)cc3)cc2)c1C | -7.67
85 | O=C(/C=C/c1ccc(F)cc1)Nc1ccc(S(=O)(=O)N2CCOCC2)cc1 | 9
86 | Cc1cccc(OC(=O)c2ccc3nccnc3c2)c1 | -2.41
87 | O=C1CC(=Nc2ccccc2)NN1c1ccccc1 | 23.1
88 | O=C(c1ccco1)N1CCN(c2ncnc3scc(-c4ccccc4)c23)CC1 | -64.5
